The list shows a part of the results.

The test system of one assay is HSkMC. As to the kind of experiment: cytotoxicity call (relative viability < 0.9). The following applies: 10 µM.
Another assay deals with HepG2. Kind of assay: cytotoxicity call (relative viability < 0.9). The conditions noted are these: 10 µM.
For a further assay, the system named is S. aureus RN4220. Kind of assay: growth inhibition call (relative growth <= 0.2). The conditions noted are these: 50 µM.

On to `CCC(=O)O`, for which the cytotoxicity call in the assay on HSkMC and with HepG2 was “inactive” throughout. In addition, the growth inhibition call in the assay on S. aureus RN4220 is “inactive”.
Take `Cc1noc(C)c1S(=O)(=O)N(C)C[C@H]1OCc2cnnn2CCCC(=O)N([C@H](C)CO)C[C@@H]1C`: the cytotoxicity call in the assay with HSkMC and with HepG2 was “inactive” throughout. The growth inhibition call in the assay with S. aureus RN4220 is “inactive”.
For `CC(C)NC(=O)Nc1ccc2c(c1)C(=O)N([C@@H](C)CO)C[C@@H](C)[C@H](CN(C)S(=O)(=O)c1cn(C)cn1)OCCCC[C@H](C)O2`, the cytotoxicity call with HSkMC and with HepG2 was “inactive” in each case. The growth inhibition call with S. aureus RN4220 was “inactive”.
Regarding `C[C@@H]1CN([C@H](C)CO)S(=O)(=O)c2ccc(-c3ccc(F)cc3)cc2O[C@@H]1CN(C)C(=O)C1CCOCC1`, the cytotoxicity call with HSkMC and with HepG2 was “inactive” each time. For the same compound, the growth inhibition call in the assay with S. aureus RN4220 is “inactive”.
With `CC(C)NC(=O)Nc1ccc2c(c1)C(=O)N([C@H](C)CO)C[C@H](C)[C@@H](CN(C)Cc1ccc(Oc3ccccc3)cc1)O2`, the cytotoxicity call with HSkMC and in the assay on HepG2 was “inactive” each time. In the assay on S. aureus RN4220, the growth inhibition call was “inactive”.
Take `Cc1noc(C)c1S(=O)(=O)N(C)C[C@H]1Oc2ccc(NC(=O)Cc3cn(C)c4ccccc34)cc2CC(=O)N([C@@H](C)CO)C[C@H]1C`: the cytotoxicity call with HSkMC and with HepG2 was “inactive” in each case. The growth inhibition call in the assay with S. aureus RN4220 was “inactive”.
In the case of `COc1ccc(S(=O)(=O)N(C)C[C@H]2Oc3ccc(NC(=O)Nc4cccc5ccccc45)cc3C(=O)N([C@H](C)CO)C[C@@H]2C)cc1`, the cytotoxicity call in the assay with HSkMC and with HepG2 was “inactive” throughout. In addition, the growth inhibition call in the assay with S. aureus RN4220 is “inactive”.
Turning to `C[C@H]1CC/C=C\[C@H]2O[C@@]34C=CCN(Cn5nnc6ccccc65)C(=O)[C@H]3N(CCCCCO)C(=O)[C@@H]4[C@@H]2C(=O)O1`, the cytotoxicity call in the assay with HSkMC and in the assay with HepG2 was “inactive” each time. Moreover, the growth inhibition call in the assay with S. aureus RN4220 was “inactive”.
Regarding `C[C@@H]1CN([C@H](C)CO)C(=O)c2cc(NS(=O)(=O)c3ccc(F)cc3)ccc2O[C@@H]1CN(C)Cc1ccc(Oc2ccccc2)cc1`, the cytotoxicity call in the assay on HSkMC and in the assay on HepG2 was “active” in each case. For the same compound, the growth inhibition call with S. aureus RN4220 was “inactive”.
On to `CN(C)c1ccc(O)c2c1C[C@H]1C[C@H]3[C@H](N(C)C)C(=O)C(C(N)=O)=C(O)[C@@]3(O)C(=O)[C@H]1C2=O`, for which the cytotoxicity call in the assay on HSkMC and with HepG2 was “inactive” in each case. In addition, the growth inhibition call in the assay with S. aureus RN4220 is “inactive”.
As for `Cc1noc(C)c1S(=O)(=O)Nc1ccc2c(c1)C(=O)N([C@H](C)CO)C[C@H](C)[C@H](CN(C)S(=O)(=O)c1cn(C)cn1)OCCCC[C@H](C)O2`, the cytotoxicity call in the assay on HSkMC (human skeletal muscle cells) and in the assay with HepG2 was “inactive” throughout. For the same compound, in the assay on S. aureus RN4220, the growth inhibition call was “inactive”.
On to `COc1cccc(S(=O)(=O)N(C)C[C@@H]2Oc3ncc(C#CCN(C)C)cc3C(=O)N([C@H](C)CO)C[C@H]2C)c1`, for which the cytotoxicity call with HSkMC and in the assay on HepG2 was “inactive” throughout. In addition, the growth inhibition call in the assay on S. aureus RN4220 is “inactive”.
Regarding `CC(C)NC(=O)N(C)C[C@@H]1Oc2ccc(NC(=O)CCCN(C)C)cc2C(=O)N([C@@H](C)CO)C[C@@H]1C`, the cytotoxicity call in the assay with HSkMC and with HepG2 was “inactive” each time. The growth inhibition call with S. aureus RN4220 was “inactive”.
Take `CC(C)NC(=O)N(C)C[C@H]1Oc2ccc(NS(=O)(=O)c3cn(C)cn3)cc2CC(=O)N([C@H](C)CO)C[C@@H]1C`: the cytotoxicity call with HSkMC and in the assay on HepG2 was “inactive” throughout. The growth inhibition call in the assay with S. aureus RN4220 was “inactive”.
